Reference: PubChem BioAssay (NCI)
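Values below derive from 48-hour exposures of cells grown in 96-well plates, with endpoints linearly interpolated between the two concentrations bracketing the appropriate inhibition level. GI50 marks 50% less growth.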 Not every entry of the source has a single result; some have several. This list holds those alone. An entry can have further records. For part of these data: The tests behind the records often covered other concentration ranges, not given here; a value can be the end of its range.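 TGI: concentration producing complete growth inhibition.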 For part of these data: Values that stand side by side repeat one measurement in other runs, samples, wells, individuals or studies. Records carry a tag for their origin. A, B and so on number the origins entry by entry.

What was measured:
Test in all cases: growth of human tumour cells (NCI), 48 h
CAKI-1 renal = tested on: CAKI-1 renal
COLO 205 colon = tested on: COLO 205 colon
HCT-116 colon = tested on: HCT-116 colon
KM12 colon = tested on: KM12 colon
MCF7 breast = tested on: MCF7 breast
MDA-MB-231 breast = tested on: MDA-MB-231 breast
NCI-H23 lung = tested on: NCI-H23 lung
OVCAR-3 ovarian = tested on: OVCAR-3 ovarian
RXF 393 renal = tested on: RXF 393 renal
SF-539 CNS = tested on: SF-539 CNS
SK-MEL-2 melanoma = tested on: SK-MEL-2 melanoma
UACC-257 melanoma = tested on: UACC-257 melanoma
MDA-MB-435 = tested on: MDA-MB-435
PC-3 prostate = tested on: PC-3 prostate
A498 renal = tested on: A498 renal
SK-OV-3 ovarian = tested on: SK-OV-3 ovarian
CCRF-CEM leukemia = tested on: CCRF-CEM leukemia
HL-60(TB) leukemia = tested on: HL-60(TB) leukemia
K-562 leukemia = tested on: K-562 leukemia
MOLT-4 leukemia = tested on: MOLT-4 leukemia
786-0 renal = tested on: 786-0 renal
HCC-2998 colon = tested on: HCC-2998 colon
HOP-62 NSCLC = tested on: HOP-62 NSCLC
HS 578T breast = tested on: HS 578T breast
HT29 colon = tested on: HT29 colon
IGROV1 ovarian = tested on: IGROV1 ovarian
LOX IMVI melanoma = tested on: LOX IMVI melanoma
M14 melanoma = tested on: M14 melanoma
MALME-3M melanoma = tested on: MALME-3M melanoma
NCI-H460 lung = tested on: NCI-H460 lung
NCI-H522 lung = tested on: NCI-H522 lung
OVCAR-8 ovarian = tested on: OVCAR-8 ovarian
SF-295 CNS = tested on: SF-295 CNS
SK-MEL-28 melanoma = tested on: SK-MEL-28 melanoma
SK-MEL-5 melanoma = tested on: SK-MEL-5 melanoma
SW-620 colon = tested on: SW-620 colon
T-47D breast = tested on: T-47D breast
TK-10 renal = tested on: TK-10 renal
U251 CNS = tested on: U251 CNS
DMS 273 small cell lung = tested on: DMS 273 small cell lung
SNB-75 CNS = tested on: SNB-75 CNS
SR leukemia = tested on: SR leukemia

Structure (SMILES)	TGI (CAKI-1 renal)	TGI (COLO 205 colon)	TGI (MCF7 breast)	TGI (MDA-MB-231 breast)	TGI (OVCAR-3 ovarian)	TGI (SF-539 CNS)	TGI (UACC-257 melanoma)	TGI (MDA-MB-435)	TGI (PC-3 prostate)	TGI (A498 renal)	TGI (MOLT-4 leukemia)	TGI (786-0 renal)	TGI (HT29 colon)	TGI (SF-295 CNS)	TGI (SK-MEL-5 melanoma)	TGI (U251 CNS)	also measured
CCOc1cc2c(cc1O)/C(=N\O)C[C@@H]1[C@@H]2CC[C@]2(C)[C@@H](O)CC[C@@H]12	3.03 nM and > 100 µM	3.28 nM and 23.7 µM	2.29 µM and > 100 µM	2.88 nM and 508 nM	38.5 nM and 10.5 µM	6.89 nM and > 100 µM	275 nM and > 100 µM	–	–	–	–	–	–	–	–	–	GI50 (CAKI-1 renal): 1.59 nM and 42.6 nM; TGI (HCT-116 colon): 394 nM and > 43 µM; TGI (KM12 colon): 1.2 µM and > 100 µM; GI50 (MDA-MB-231 breast): 1.41 nM and 52.9 nM; TGI (NCI-H23 lung): 2.65 µM and 27.2 µM; GI50 (RXF 393 renal): 24 nM and 353 nM; GI50 (SK-MEL-2 melanoma): 801 nM and 57.4 nM
O=C([O][Hg][CH2]C1COC([CH2][Hg][O]C(=O)c2ccccc2)CO1)c1ccccc1 (stereo not drawn)	–	–	–	–	–	–	–	30.4 µM and 2.99 µM	28.7 µM and 2.65 µM	–	–	–	–	–	–	–	–
CN1CCN(c2ccc3nc(-c4c(N)c5c(F)cccc5[nH]c4=O)[nH]c3c2)CC1	–	–	–	–	–	–	–	–	–	1.47 µM [sample A, 1 test] and 378 nM [sample B, 1 test] and 17.1 µM [sample C, 1 test]	–	–	–	–	–	–	TGI (SK-OV-3 ovarian): 1.58 µM [sample A, mean of 2 tests] and > 10 µM [sample B, mean of 2 tests] and 16.1 µM [sample C, 1 test]
C/C(=N\N=C(\[Se])N1CCN(c2ccccn2)CC1)c1ccccn1	–	–	–	–	–	–	–	–	–	–	29.5 nM and > 100 µM	–	–	–	–	–	GI50 (CCRF-CEM leukemia): 2.11 nM and 23.4 nM; TGI (CCRF-CEM leukemia): 8.58 nM and 17.4 µM; TGI (HL-60(TB) leukemia): 531 nM and 7.7 µM; TGI (K-562 leukemia): 11.6 nM and > 48.7 µM
CN(C)CCOc1ccc(/C(=C(/CCCl)c2ccccc2)c2ccccc2)cc1	–	40 µM [sample A] and 1.58 µM [sample B]	16.4 µM [sample A] and 1.62 µM [sample B]	31.1 µM [sample A] and 2.26 µM [sample B]	24.2 µM [sample A] and 2.08 µM [sample B]	31.4 µM [sample A] and 1.64 µM [sample B]	35.4 µM [sample A] and 1.82 µM [sample B]	31.8 µM [sample A] and 1.78 µM [sample B]	29.9 µM [sample A] and 2.72 µM [sample B]	–	36.8 µM [sample A] and 2.94 µM [sample B]	32.4 µM [sample A] and 1.76 µM [sample B]	18.1 µM [sample A] and 1.28 µM [sample B]	28.5 µM [sample A] and 2.07 µM [sample B]	29.5 µM [sample A] and 1.45 µM [sample B]	32.6 µM [sample A] and 1.51 µM [sample B]	TGI (HCC-2998 colon): 19 µM [sample A] and 1.5 µM [sample B]; TGI (HOP-62 NSCLC): 29.6 µM [sample A] and 1.82 µM [sample B]; TGI (HS 578T breast): 34.5 µM [sample A] and 2.8 µM [sample B]; TGI (IGROV1 ovarian): 46.4 µM [sample A] and 4.01 µM [sample B]; TGI (LOX IMVI melanoma): 32 µM [sample A] and 1.53 µM [sample B]; TGI (M14 melanoma): 29.1 µM [sample A] and 1.88 µM [sample B]; TGI (MALME-3M melanoma): 33.8 µM [sample A] and 1.92 µM [sample B]; TGI (NCI-H460 lung): 29.1 µM [sample A] and 1.59 µM [sample B]; TGI (NCI-H522 lung): 30.1 µM [sample A] and 1.69 µM [sample B]; TGI (OVCAR-8 ovarian): 31.5 µM [sample A] and 2.42 µM [sample B]; TGI (SK-MEL-2 melanoma): 29.7 µM [sample A] and 1.75 µM [sample B]; TGI (SK-MEL-28 melanoma): 29.4 µM [sample A] and 1.64 µM [sample B]; TGI (SW-620 colon): 30.1 µM [sample A] and 2.01 µM [sample B]; TGI (T-47D breast): 33.2 µM [sample A] and 2.91 µM [sample B]; TGI (TK-10 renal): 28.6 µM [sample A] and 2.2 µM [sample B]
CCOC(=O)Nc1cc2c(c(N)n1)N=C(c1ccccc1)[C@H](C)N2	< 0.1 nM and 61 µM	–	–	–	–	–	–	–	–	0.991 nM and 12.5 µM	–	557 nM and 24.3 µM	46.4 nM and 10 µM	< 0.1 nM and 12.6 µM	3.16 nM and 12.7 µM	46.4 nM and 13.2 µM	TGI (DMS 273 small cell lung): < 0.1 nM and 14.5 µM; TGI (RXF 393 renal): < 0.1 nM and 27.8 µM; TGI (SNB-75 CNS): 925 nM and > 100 µM; TGI (SR leukemia): 3.16 nM and > 100 µM
